From PubChem BioAssay AID463173 (ICCB-Longwood Screening Facility, Harvard Medical School, 2010)
In all, about 52,000 compounds went through this assay and about 4,300 (8.3%) were called active. Rule as the data show it: active = survival mostly below about 52% (no sharp cut-off); inactive = mostly above about 56%. Some of the results follow.

system: DeltatarO mutant; assay: growth inhibition of S. aureus wild type versus tarO mutant, primary screen, teichoic acid synthesis inhibitors, RN4220, OD600 (AID 463173); details: OD600, 18 h, stronger effect = lower value, screened at 18.75 µg/mL (by protocol)

Compound | survival
Cc1ccccc1NC(=O)c1cc2sccc2n1Cc1ccc(F)cc1 | inactive: 88%
CCOc1ccc(-c2c(C)nn3c(C)c(C(=O)Nc4cccc(Cl)c4C)cnc23)cc1OCC | inactive: 76%
COCCN1Cc2cccc(C(=O)Nc3ccc(C(=O)OC)cc3)c2C1=O | inactive: 82%
Cc1ccc(NC(=O)c2cc(S(=O)(=O)N3CCC(C)CC3)cn2C)cc1Cl | inactive: 80%
Cc1cc2cc(CCNS(=O)(=O)c3ccc(Br)cc3)c(=O)[nH]c2cc1C | inactive: 48%
COc1ccccc1C(=O)Nc1ccc2nc(SCC(=O)N3CCCC3)sc2c1 | inactive: 88%
CCCCc1cc(O)c(CCCC)c(O)c1 | active: 12%
COCCNC(=O)CCCn1c(SCC(=O)c2ccc(F)cc2)nc2c(sc3ccccc32)c1=O | inactive: 85%
Cc1ccc(NC(=O)/C(C#N)=C\c2ccc(-c3ccc(Cl)cc3)o2)c(C)c1 | inactive: 77%
COc1cc(/C=N/NC(=O)c2cccc(N3CCCC3=O)c2)ccc1O | inactive: 92%
COc1cc2oc(=O)c(CC(=O)NCCc3ccccc3)c(C)c2cc1Cl | inactive: 78%
CCOC(=O)CCn1c(=O)c2cccn2c2cccnc21 | inactive: 90%
CSc1nn(Cc2ccccc2C)c(NC(C)=O)c1S(=O)(=O)c1ccc(C)cc1 | inactive: 75%
COc1ccc(NC(=O)CCc2nc3c(C)nn(-c4ccc(C)cc4)c3n(C)c2=O)c(OC)c1 | inactive: 77%
CCc1ccc(CN(C(=O)c2ccc(OC)cc2)C2CCS(=O)(=O)C2)cc1 (stereo not given) | inactive: 79%
CCOC(=O)c1ccc(NC(=O)CC2Nc3cccc4cccc(c34)NC2=O)cc1 (stereo not given) | active: 28%
Cc1noc(C)c1S(=O)(=O)Nc1ccc(C(=O)Nc2ccc(C(C)C)cc2)cc1 | active: 52%
COc1ccc(-c2onc(C)c2C)cc1S(=O)(=O)N1CCc2ccccc21 | active: 6%
O=C1CCC(=O)N1CC(O)CCOc1ccc(OCCC(O)CN2C(=O)CCC2=O)cc1 (stereo not given) | inactive: 74%
Cc1cc(Br)cc(C)c1NC(=O)c1cnc2ccccn2c1=O | inactive: 106%
Cn1c2c(c(=O)n(C)c1=O)C(c1cccc(O)c1)CC(=O)N2 (stereo not given) | inactive: 99%
Cn1c(-c2ccccc2)cnc1SCc1ccccc1 | inactive: 108%
COc1cccc(NS(=O)(=O)c2ccc3[nH]c4c(c3c2)CCCCCC4)c1 | inactive: 72%

Compound | survival
S=c1[nH]nc(NCCc2ccccc2)s1 | inactive: 84%
Cc1ccc2nc(N(Cc3cccnc3)C(=O)c3ccco3)sc2c1 | inactive: 91%
COc1ccc(-c2c(C)c3ccc(O)c(CN4CCCCC4)c3oc2=O)cc1OC | inactive: 84%
CN1CCN(C(=S)NCC2CCCO2)CC1 (stereo not given) | inactive: 64%
CCOC(=O)c1c(NC(=O)CCCOc2ccc(C)cc2)sc2c1CCC(C)C2 (stereo not given) | active: 10%
CCc1ccc(-n2c(SCc3nc(-c4cc(OC)ccc4OC)no3)nnc2-c2ccccc2)cc1 | inactive: 70%
CCOC(=O)Cn1c(=O)n(-c2ccccc2OC)c2nc(-c3ccccc3)nc(C(N)=O)c21 | active: -1%
CCc1nnc(SCC(=O)Nc2ccc(Cl)cc2F)c2cc3occc3n12 | inactive: 58%
CCc1ccc(CNC(=O)c2ccc(CS(=O)c3ccc(Br)cc3)o2)cc1 (stereo not given) | inactive: 108%
Cc1cccc(N2CCN(C(=O)c3cn(C)c4ccc(S(=O)(=O)N(C)C)cc4c3=O)CC2C)c1 (stereo not given) | inactive: 84%
CCn1c(C(=O)NCc2ccc(C)cc2)cc2sc(Cl)cc21 | inactive: 92%
COc1ccc(-c2nc3ccccc3s2)cc1NC(=O)c1ccc(C#N)cc1F | inactive: 168%
COc1cc2c3c(c1)C1(C(=O)N3C(C)(C)C=C2C)C(C#N)=C(N)NC(=O)C1C(N)=O (stereo not given) | inactive: 86%
COc1cc2c(cc1NC(=O)COc1ccc(Br)c(C)c1)oc1ccccc12 | inactive: 49%
CCC12CN3CC(CC)(CN(C1)C3c1cccc(OC)c1O)C2=O (stereo not given) | inactive: 88%
CC(C)c1ccc(NC(=O)CSc2ncnc3c2sc2ccccc23)cc1 | inactive: 70%
COc1ccccc1CNCc1ccc(C(=O)O)s1 | inactive: 105%
O=S(=O)(Nc1ccccc1-c1ccccc1)c1cccs1 | inactive: 107%
Clc1cccc(CSc2nc(NCCc3ccccc3)c3ccccc3n2)c1 | inactive: 102%
CC(C)c1ccc(NC(=O)c2ccc3oc(=O)c(S(=O)(=O)c4ccc(F)cc4)cc3c2)cc1 | inactive: 86%
COc1cn(CC(=O)Nc2c(C)cc(C)cc2C)c(CN2CCCCC2)cc1=O | inactive: 98%
CS(=O)(=O)N(CC(=O)N1CCCCC1)c1sc2c(c1C#N)CCCC2 | inactive: 103%
CCOc1ccc(S(=O)(=O)NCCc2csc3nc(-c4ccc(OC)c(OC)c4)nn23)cc1 | inactive: 89%

Compound | survival
CCN(CC)c1ccc(NC(=O)CN(C)S(=O)(=O)c2cccc3nsnc23)c(C)c1 | inactive: 128%
CCOc1ccc(C2C(=O)N(C3CCCCCC3)CC(=O)N2Cc2ccc(F)cc2)cc1OC (stereo not given) | inactive: 117%
CCN(CC)c1ccc(C(=O)NCc2ccc3c(c2)CCN3C(=O)c2cccc(C)c2)cc1 | inactive: 102%
CCOc1ccc(CCNC(=O)C(CC(C)C)N2Cc3ccccc3C2=O)cc1OCC (stereo not given) | inactive: 89%
CCOc1ccccc1NC(=O)Nc1ccc2nc(N3CCN(C)CC3)cc(C)c2c1 | inactive: 75%
COc1c(C)cccc1C(=O)Nc1ccc(Cl)c(-c2nc3cc(C)ccc3o2)c1 | active: 6%
COc1ccc(C(=O)Nc2ccc(N3CCN(c4ccccc4)CC3)c(C(=O)O)c2)cc1 | inactive: 94%
COc1ccc(-c2nc3sc(CCNC(=O)Cc4ccc(Cl)cc4)c(C)n3n2)cc1 | inactive: 62%
CCOc1ccc(CCNC(=O)CSc2nc3ccccc3nc2Cc2ccc(C)cc2)cc1OCC | inactive: 112%
CC(C)CCOc1ccc(Cn2c(=O)sc3ccccc32)cc1 | active: 0%
CCCc1oc2ccc(NS(=O)(=O)c3ccc(OCC)cc3)cc2c1C(=O)OCC | inactive: 65%
CNc1nc(SCc2ccccc2)nc(N2CCOCC2)n1 | inactive: 69%
COC(=O)CC(=O)CSc1nc2cc(C(=O)NC(C)C)ccc2c(=O)n1CCc1ccccc1 | inactive: 94%
O=C(Cc1ccc(-c2ccccc2)cc1)NCCS(=O)(=O)N1CCN(c2cccc(Cl)c2)CC1 | inactive: 74%
COc1ccc(Nc2ncnc3c2cnn3-c2cc(Cl)ccc2C)cc1OC | inactive: 92%
Cc1cccc(-c2nc(SCCCOc3cc(C)c(Cl)c(C)c3)n3[nH]c(=O)cc3n2)c1 | inactive: 69%
CCOc1ccc(OCCOCCn2c(-c3ccc(Cl)cc3)nc3ccccc3c2=O)cc1 | active: 26%
CSc1ncc(C(=O)NCc2ccc(F)cc2)c(-c2ccccc2)n1 | inactive: 95%
CCCCN(CC)CCCNC(=O)Cn1nc(CC)n2c(cc3sccc32)c1=O | inactive: 93%
CCOC(=O)c1ccc(NC(=O)CCCn2nc(C)c3sc4ccccc4c3c2=O)cc1 | inactive: 86%
COc1ccc2c(c1)c1c(c(=O)n(CCc3ccccc3)c(=O)n1Cc1cccc(C)c1)n2C | inactive: 70%
CCN1/C(=C\C(=O)C2CC2)Sc2ccccc21 | inactive: 81%
CCOc1ccc(C2C(=O)N(C3CCCCC3)CC(=O)N2Cc2ccccc2OC)cc1OC (stereo not given) | inactive: 84%

Compound | survival
CCc1ccc(-c2nc3c(c(SCc4ccccc4)n2)Cc2c(CO)cnc(C)c2O3)cc1 | inactive: 66%
Cc1ccc(-c2onc(C)c2C)cc1S(=O)(=O)N1CCC(C)CC1 | inactive: 71%
Cc1ccc(Cn2c(C(=O)Nc3ccc(Cl)cc3)cc3sccc32)cc1 | inactive: 112%
COc1ccccc1N(CC(=O)NC1CCCCC1)C(=O)c1csnn1 | inactive: 96%
COc1cc(Cl)c(C)cc1NC(=O)CNC(=O)Cn1ccc2ccccc2c1=O | inactive: 52%
O=C(CN1C(=O)COc2ccc(S(=O)(=O)N3CCOCC3)cc21)NCc1ccc(Cl)cc1 | inactive: 55%
CCN(C(=O)CSc1nnc(-c2cc3occc3n2C)n1-c1ccccc1C)c1ccccc1 | inactive: 120%
Cc1nc2cc(-c3ccc(Cl)cc3)nn2c(C)c1CCC(=O)N1CCN(c2ccccc2)CC1 | inactive: 124%
CS(=O)(=O)c1ncc(Cl)c(C(=O)N2CCN(c3cccc(Cl)c3)CC2)n1 | active: 17%
Cc1oc2ncn(CC(C)C)c(=O)c2c1C(=O)NCc1cccc(Cl)c1 | inactive: 94%
CCOc1ccc(Nc2sc(C(=O)c3ccc(F)cc3)c(N)c2S(=O)(=O)c2ccc(C)cc2)cc1 | active: 52%
O=C(Nc1ccc(Cl)cc1)c1ccc2oc(=O)n(Cc3ccccc3)c2c1 | inactive: 67%
COc1ccc(C(=O)CN2CCN(S(=O)(=O)c3ccc(F)cc3)CC2)cc1 | inactive: 83%
COCCCNc1nc2c(c(=O)n(Cc3ccccc3)c(=O)n2C)n1C | inactive: 64%
COc1ccc(C2c3c(n(C)c4ccccc34)C(=O)N2CC(=O)Nc2c(C)cc(C)cc2C)cc1 (stereo not given) | inactive: 84%
CC(C)Cn1cc(NC(=O)NCc2ccc(Cl)cc2)c2ccccc2c1=O | inactive: 86%
CCC(=O)N1c2ccccc2CC1C(=O)NCCCN1CCN(c2cccc(Cl)c2)CC1 (stereo not given) | inactive: 95%
Cc1ccc(C)c(NC(=O)CSc2nc(=O)n(CCN3CCOCC3)c3c2CCC3)c1 | inactive: 84%
COc1cc2c(cc1OC)C(COc1ccc3c(C)cc(=O)oc3c1)N(C(=O)c1ccc(C)cc1)CC2 (stereo not given) | inactive: 67%
Cc1c(C(=O)NCc2ccccc2Cl)sc2nc3n(c(=O)c12)CCCC3 | inactive: 51%
CCOc1ccccc1CNC(=O)C(CC)n1nc(C)c2c(C)n(-c3ccccc3)nc2c1=O (stereo not given) | inactive: 98%
